About 2,200 (0.71%) of roughly 310,000 compounds showed an effect of 50% or more. The effect is printed as a negative number. The list shows a part of the results.

For the experiment, the target named is human ether-à-go-go-related gene (hERG) potassium channel (human, UniProt Q12809). The experiment can be described thus: primary screen, population patch clamp on CHO cells stably expressing hERG.
Chain of human ether-à-go-go-related gene (hERG) potassium channel (Q12809 whole entry, looked up): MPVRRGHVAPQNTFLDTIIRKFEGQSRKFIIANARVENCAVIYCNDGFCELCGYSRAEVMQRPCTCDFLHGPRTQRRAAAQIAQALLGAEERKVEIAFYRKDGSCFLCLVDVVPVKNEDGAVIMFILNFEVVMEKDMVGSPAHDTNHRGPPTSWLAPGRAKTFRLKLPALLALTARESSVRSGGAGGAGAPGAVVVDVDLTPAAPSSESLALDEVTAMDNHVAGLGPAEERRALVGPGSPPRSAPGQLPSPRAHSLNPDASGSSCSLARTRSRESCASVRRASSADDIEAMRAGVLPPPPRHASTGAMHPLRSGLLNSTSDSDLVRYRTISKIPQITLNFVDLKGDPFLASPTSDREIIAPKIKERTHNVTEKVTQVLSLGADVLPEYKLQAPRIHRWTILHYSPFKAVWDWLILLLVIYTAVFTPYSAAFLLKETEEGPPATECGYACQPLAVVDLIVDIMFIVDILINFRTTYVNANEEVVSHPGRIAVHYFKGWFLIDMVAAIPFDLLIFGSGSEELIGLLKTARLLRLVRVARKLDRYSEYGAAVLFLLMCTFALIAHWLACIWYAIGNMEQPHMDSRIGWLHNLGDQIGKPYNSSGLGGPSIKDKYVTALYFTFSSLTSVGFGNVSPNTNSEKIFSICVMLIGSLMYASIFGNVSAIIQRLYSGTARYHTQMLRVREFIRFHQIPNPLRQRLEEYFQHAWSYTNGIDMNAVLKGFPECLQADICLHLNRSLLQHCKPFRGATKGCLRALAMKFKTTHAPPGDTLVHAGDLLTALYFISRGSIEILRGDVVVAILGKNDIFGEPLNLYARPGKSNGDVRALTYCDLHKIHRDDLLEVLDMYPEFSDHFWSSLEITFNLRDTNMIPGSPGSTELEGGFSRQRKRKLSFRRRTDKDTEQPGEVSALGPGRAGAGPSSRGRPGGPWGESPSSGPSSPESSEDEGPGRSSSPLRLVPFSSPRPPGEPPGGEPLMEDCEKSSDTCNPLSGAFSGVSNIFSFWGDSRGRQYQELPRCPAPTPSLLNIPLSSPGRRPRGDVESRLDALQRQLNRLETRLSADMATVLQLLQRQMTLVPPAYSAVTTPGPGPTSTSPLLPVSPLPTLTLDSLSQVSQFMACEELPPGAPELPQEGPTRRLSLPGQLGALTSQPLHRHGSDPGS
For `Cc1ccccc1OCc1nnc(SCC(=O)Nc2ccc3nc(SCC(=O)NC(C)(C)C)sc3c2)n1C`, the “hERG current change (%, negative = inhibition) at 1uM” value worked out at 6.82%.

In the case of `CCOC(=O)Cn1ncn(-c2ccc(OC(F)(F)F)cc2)c1=O`, the “hERG current change (%, negative = inhibition) at 1uM” value is given as 3.95%.

Consider `CCOc1ccccc1C(=O)Nc1cccc(-c2ccc(N3CCOCC3)nn2)c1`, for which the “hERG current change (%, negative = inhibition) at 1uM” value is on record as 2.92%.

For `O=C(NCc1ccco1)C1CC(c2ccc(Cl)c(Cl)c2)=NO1` (stereo not drawn), the “hERG current change (%, negative = inhibition) at 1uM” value came to 16%.

As for `CCOC(=O)NC1Cc2ccccc2C1Sc1ccccn1` (stereo not drawn), the “hERG current change (%, negative = inhibition) at 1uM” value came to 17.9%.

As to `CCCCN(Cc1ccco1)C(=O)c1cc2c(=O)[nH]c3ccc(C)cc3c2s1`, the “hERG current change (%, negative = inhibition) at 1uM” value was 17.2%.

In the case of `N#Cc1cccc(NC(=O)CNc2cccc(S(=O)(=O)N3CCCC3)c2)c1`, the “hERG current change (%, negative = inhibition) at 1uM” value was 3.5%.

As for `O=C(COC(=O)CCC1CCCC1)Nc1cccc(S(=O)(=O)N2CCOCC2)c1`, the “hERG current change (%, negative = inhibition) at 1uM” value is 10.9%.

Turning to `CCCc1cc(=O)n2c([nH]c3ccccc32)c1C#N`, the “hERG current change (%, negative = inhibition) at 1uM” value turned out to be 11.3%.

Turning to `Cc1oc2nc(SCC(=O)NCCCO)nc(N)c2c1C`, the “hERG current change (%, negative = inhibition) at 1uM” value is given as 3.07%.

For `CS(=O)(=O)N(CCc1ccccc1)CC(=O)Nc1ccc(Br)cc1F`, the “hERG current change (%, negative = inhibition) at 1uM” value turned out to be 12.5%.

`COc1cccc(CNC(C)(C)CO)c1OCc1ccc(Cl)cc1.Cl`: the “hERG current change (%, negative = inhibition) at 1uM” value was -5.65%.

Take `Br.C(CCCN1CCCCC1)CCN1CCCCC1`: the “hERG current change (%, negative = inhibition) at 1uM” value is on record as 6.68%.

Take `Cc1ccc(C2CC(c3cccs3)=NN2C(=O)CSc2nc(=O)n3cc(C)ccc3n2)cc1` (stereo not drawn): the “hERG current change (%, negative = inhibition) at 1uM” value is on record as -25.5%.

Turning to `CCOc1ccc(OCCC(=O)N2CCN(S(=O)(=O)c3cccc(F)c3)CC2)cc1`, the “hERG current change (%, negative = inhibition) at 1uM” value worked out at 6.58%.

In the case of `CC(=O)NCCc1nc2ccccc2n1Cc1cc(C)ccc1C`, the “hERG current change (%, negative = inhibition) at 1uM” value was found to be 10.5%.

Consider `CCOC(=O)C1CCN(S(=O)(=O)c2ccc3[nH]c(=O)c(=O)[nH]c3c2)CC1`, for which the “hERG current change (%, negative = inhibition) at 1uM” value is 6.09%.

As for `Cc1cccn2c(=O)c3c(nc12)N1CCC(Cc2ccccc2)CC1C1(C3)C(=O)N(C)C(=O)N(C)C1=O` (stereo not drawn), the “hERG current change (%, negative = inhibition) at 1uM” value worked out at 7.21%.

Turning to `CC(C)c1ccc(C(=O)NCCCN2CCOCC2)cc1`, the “hERG current change (%, negative = inhibition) at 1uM” value was determined as 2.78%.

`Cc1ccc(S(=O)(=O)N2CCCCC2)cc1NC(=O)Cn1cnnn1`: the “hERG current change (%, negative = inhibition) at 1uM” value stood at 3.79%.

On to `O=C(CN1C(=O)c2ccccc2C1=O)N1CCN(C2c3ccccc3-c3ccccc32)CC1`, for which the “hERG current change (%, negative = inhibition) at 1uM” value is 14%.

As to `O=C(NC1CCCCC1)c1ccc(CS(=O)(=O)c2ccc(Cl)cc2)o1`, the “hERG current change (%, negative = inhibition) at 1uM” value is on record as 7.6%.

As to `COc1ccc(CNC(=O)c2cc3c(=O)n4ccccc4nc3n(CC3CCCO3)c2=N)cc1` (stereo not drawn), the “hERG current change (%, negative = inhibition) at 1uM” value is -80.4%.

As for `Nc1c(-c2ccc(Cl)cc2)nnn1-c1ccccc1`, the “hERG current change (%, negative = inhibition) at 1uM” value is given as -3.84%.

The record behind these values is PMC4336329 (PLoS ONE, 2015).
